Experimental data reported in the supplement of paper PMC6206098.
± gives the uncertainty stated by the source. Shown are siRNA guide strands that differ only in the seed, positions 2 to 7.

Legend:
3LL = assay: cell viability relative to siNT1 control; higher = less toxic; conditions: concentration: 10 nM; 96 h; Mus musculus;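 also: Luminescence-based viability of cells reverse transfected in 384-well plates with lipid-complexed siRNAs built on a non-toxic 19mer backbone whose passenger strand carries 2′-O-methyl groups at positions 1 and 2, triplicates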
H460 = assay: cell viability relative to lipid-only control; HeyA8 human ovarian and H460 human lung cancer; M565 mouse liver and 3LL mouse lung cancer; siNT1 is a non-toxic control siRNA; higher = less toxic; conditions: concentration: 10 nM; 96 h; Homo sapiens
HeyA8 = assay: as above; conditions: concentration: 10 nM; 96 h; Homo sapiens
M565 = assay: as above; conditions: concentration: 10 nM; 96 h; Mus musculus
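For cell viability relative to lipid-only control in this document: reverse lipid transfection in 384-well plates, in triplicate, of duplexes on a non-toxic 19mer backbone with passenger strand 2′-O-methylated at positions 1 and 2, luminescence viability read-out.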

Sequence | cell viability (3LL) | cell viability (H460) | cell viability (HeyA8) | cell viability (M565)
UCGAGCUACAUGUAAACCAAA | 59.9 ± 15% | 58.9 ± 7.3% | 25.3 ± 2.6% | 30.6 ± 2.6%
UCGUAUUACAUGUAAACCAAA | 86.4 ± 9.5% | 78.5 ± 18% | 88.4 ± 3.3% | 72.3 ± 6.7%
UCCCCCAACAUGUAAACCAAA | 106 ± 19% | 86.3 ± 13% | 74.4 ± 4.2% | 79.5 ± 12%
UAAACGUACAUGUAAACCAAA | 75.4 ± 5.8% | 104 ± 9.1% | 80.7 ± 21% | 73 ± 16%
UUGAACAACAUGUAAACCAAA | 79.7 ± 12% | 74.7 ± 11% | 96.6 ± 9.9% | 90.1 ± 5.8%
UCACUAUACAUGUAAACCAAA | 92.9 ± 19% | 27.2 ± 2.3% | 72.4 ± 2.1% | 75.9 ± 6.8%
UCUCACUACAUGUAAACCAAA | 91.3 ± 20% | 28.9 ± 8.6% | 73.2 ± 1.7% | 65.5 ± 18%
UUAGUCCACAUGUAAACCAAA | 15.4 ± 1.6% | 56.8 ± 9.8% | 32.9 ± 3.8% | 22.2 ± 13%
UCUCGAGACAUGUAAACCAAA | 97.7 ± 18% | 52.2 ± 1.3% | 92.3 ± 9% | 67.6 ± 13%
UCUGCGGACAUGUAAACCAAA | 97 ± 12% | 61.1 ± 8% | 57.7 ± 2.3% | 40.7 ± 10%
UCUACGAACAUGUAAACCAAA | 99.5 ± 16% | 81.5 ± 12% | 85.7 ± 1.7% | 65.2 ± 13%
UCCCACUACAUGUAAACCAAA | 99.3 ± 15% | 56.9 ± 4.3% | 89.8 ± 12% | 58.8 ± 14%
UUUCGAGACAUGUAAACCAAA | 94.9 ± 7.4% | 79.3 ± 14% | 100 ± 2.7% | 87.9 ± 17%
UCGGGAUACAUGUAAACCAAA | 64.6 ± 13% | 54.9 ± 5.6% | 52.8 ± 4.4% | 23.7 ± 3.8%
UGGAGCUACAUGUAAACCAAA | 2.43 ± 1.2% | 25.4 ± 1.3% | 2.22 ± 0.19% | 2.4 ± 1%
UGUACUCACAUGUAAACCAAA | 55.1 ± 22% | 87.9 ± 14% | 27.8 ± 10% | 44.4 ± 7.4%
UCUCUUAACAUGUAAACCAAA | 97.7 ± 14% | 35.4 ± 3.9% | 89.7 ± 6.5% | 64.6 ± 17%
UAAAGGGACAUGUAAACCAAA | 109 ± 17% | 71.1 ± 9.7% | 92.7 ± 10% | 77.1 ± 7.4%
UAGCAGGACAUGUAAACCAAA | 57.4 ± 14% | 35.4 ± 0.56% | 46.8 ± 4.7% | 24.9 ± 5.2%
UAGUUGAACAUGUAAACCAAA | 79.6 ± 7.2% | 52 ± 11% | 31.5 ± 5.5% | 56.5 ± 6.3%

Sequence | cell viability (3LL) | cell viability (H460) | cell viability (HeyA8) | cell viability (M565)
UCCCAUAACAUGUAAACCAAA | 108 ± 24% | 27.6 ± 2.9% | 93.5 ± 3.8% | 70 ± 14%
UAUGGGGACAUGUAAACCAAA | 96.9 ± 3.8% | 58.3 ± 5.7% | 57.7 ± 3.1% | 75.9 ± 16%
UUCGAGGACAUGUAAACCAAA | 60.1 ± 9.6% | 62.9 ± 5.6% | 63.3 ± 6.2% | 80.9 ± 12%
UCCAAUCACAUGUAAACCAAA | 37.1 ± 6.4% | 65.7 ± 4.3% | 43.4 ± 0.76% | 58 ± 10%
UUUACAGACAUGUAAACCAAA | 107 ± 7.7% | 105 ± 14% | 98.2 ± 7.9% | 82 ± 15%
UAGGUUGACAUGUAAACCAAA | 92.6 ± 1.1% | 82.3 ± 16% | 81.3 ± 4.9% | 55 ± 7%
UGCCAGUACAUGUAAACCAAA | 14.4 ± 3.3% | 63.2 ± 4.7% | 32.9 ± 3% | 19.7 ± 3.8%
UGGCCUGACAUGUAAACCAAA | 72.3 ± 10% | 39.1 ± 4.4% | 30.7 ± 2.1% | 48 ± 1.5%
UGGCGGCACAUGUAAACCAAA | 3.81 ± 2.1% | 21.6 ± 4.3% | 5.09 ± 0.93% | 10 ± 2.2%
UCCAGUUACAUGUAAACCAAA | 87 ± 16% | 57.6 ± 7.8% | 60.8 ± 7.3% | 15.9 ± 3.8%
UCAUGAUACAUGUAAACCAAA | 49 ± 11% | 49 ± 3.7% | 38.8 ± 3.4% | 49.8 ± 8.7%
UUGGCCCACAUGUAAACCAAA | 19.6 ± 3.1% | 59.1 ± 3.8% | 68.6 ± 11% | 37.5 ± 7%
UGCCGUUACAUGUAAACCAAA | 57.5 ± 15% | 67.4 ± 11% | 65.4 ± 1.6% | 34.8 ± 4.8%
UAAACAUACAUGUAAACCAAA | 121 ± 15% | 89.1 ± 4.6% | 98.1 ± 7.5% | 85 ± 13%
UUAUAGUACAUGUAAACCAAA | 13.5 ± 0.82% | 33.1 ± 3% | 31.3 ± 2.8% | 37 ± 2.8%
UAGAAGAACAUGUAAACCAAA | 83.5 ± 5.4% | 96.3 ± 24% | 89 ± 6.9% | 65.9 ± 5.8%
UCUGCAGACAUGUAAACCAAA | 104 ± 16% | 70.9 ± 2.4% | 82.5 ± 5% | 89.2 ± 8%
UCGGCCAACAUGUAAACCAAA | 74.5 ± 20% | 66.4 ± 7.9% | 69.8 ± 5.7% | 29.1 ± 7.7%
UAGAGCGACAUGUAAACCAAA | 79.6 ± 1.4% | 70.9 ± 12% | 90 ± 7.1% | 79.2 ± 2.8%
UUUGGGAACAUGUAAACCAAA | 96.6 ± 8.1% | 74.5 ± 6.5% | 101 ± 1.3% | 68.3 ± 9.5%

Sequence | cell viability (3LL) | cell viability (H460) | cell viability (HeyA8) | cell viability (M565)
UGUAGAAACAUGUAAACCAAA | 89.2 ± 9.9% | 62.3 ± 2.8% | 87.3 ± 9.5% | 60.9 ± 9%
UCCACUAACAUGUAAACCAAA | 101 ± 34% | 64.6 ± 13% | 84.7 ± 5% | 76.8 ± 7.3%
UACGCAAACAUGUAAACCAAA | 89.7 ± 6.2% | 67.2 ± 9.1% | 90.9 ± 10% | 83.9 ± 17%
UAAGACGACAUGUAAACCAAA | 89.8 ± 6.8% | 65.3 ± 7.8% | 94.3 ± 5.4% | 73.7 ± 5.2%
UGUCACCACAUGUAAACCAAA | 6.54 ± 0.44% | 22.4 ± 0.38% | 15.2 ± 1.9% | 12.5 ± 1.9%
UUCCCGCACAUGUAAACCAAA | 74.6 ± 7.2% | 23.2 ± 0.28% | 43.1 ± 1.9% | 95.8 ± 11%
UAUUUACACAUGUAAACCAAA | 104 ± 24% | 86.5 ± 3.1% | 97.1 ± 12% | 101 ± 22%
UGCAGGAACAUGUAAACCAAA | 78.2 ± 5.9% | 35.6 ± 1.1% | 23.9 ± 1.8% | 46.8 ± 1.2%
UUUCUCCACAUGUAAACCAAA | 30.2 ± 3.2% | 28.6 ± 1.5% | 30.3 ± 3.9% | 66.9 ± 7.6%
UAGUGCCACAUGUAAACCAAA | 30.6 ± 4.1% | 48.1 ± 4.2% | 57.1 ± 2.4% | 39.9 ± 4.5%
UGAGAAUACAUGUAAACCAAA | 69.8 ± 16% | 71.3 ± 6.9% | 79.1 ± 1.2% | 46.9 ± 6%
UGAAAGGACAUGUAAACCAAA | 43.1 ± 12% | 62.5 ± 7% | 29.7 ± 3.4% | 35.5 ± 2.3%
UGGAUGCACAUGUAAACCAAA | 20.6 ± 3.3% | 23.8 ± 1.2% | 3.09 ± 0.48% | 42.6 ± 10%
UUUCUUAACAUGUAAACCAAA | 112 ± 4.4% | 71.5 ± 9.4% | 97.4 ± 3.6% | 102 ± 13%
UAGCUGUACAUGUAAACCAAA | 23 ± 6% | 72.6 ± 9.7% | 33.6 ± 4% | 15.2 ± 2.4%
UAUUCAAACAUGUAAACCAAA | 99.9 ± 15% | 89.2 ± 29% | 99.7 ± 11% | 85 ± 8.6%
UGCUGUGACAUGUAAACCAAA | 7.85 ± 0.97% | 78.9 ± 3.8% | 58.1 ± 3.7% | 6.93 ± 3.7%
UGCCUACACAUGUAAACCAAA | 53 ± 8.7% | 28.1 ± 2.8% | 27 ± 2.5% | 25.2 ± 3.5%
UUGCCACACAUGUAAACCAAA | 10.8 ± 5.5% | 45.5 ± 4.3% | 37.8 ± 2.5% | 22.8 ± 4.8%
